Laboratory results published in the supplement of paper PMC10326071.
“And” between values parts separate entries of the source, which are not always exact repeats. Identical values can stand only once. ± gives the standard deviation of the averaged measurements. Some of the results follow. Most values come without repeats; read them as rough.

Tested on: SARS-CoV-2 nsp3 SARS-unique domain core (SUD-core, nsp3 residues 413-676)
Test: dissociation rate constant koff (BLI); higher = faster dissociation
Conditions: 100 µM; 25 °C
Method: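 Primary BLI (Octet RED96e) screen of MedChemExpress Nucleotide Compound and Kinase Inhibitor libraries (1770 compounds) against biotinylated SARS-CoV-2 SUD-core on SSA biosensors. Each compound was tested once at 100 uM in PBS pH 7.4, 1% DMSO; 150 s association, 180 s dissociation, 25 C. Kd and koff are apparent values from single-concentration 1:1 fits. Only fits with full R^2 >= 0.9 are kept; fits at the software floor (<1e-12 M, <1e-7 /s) and placeholder values are excluded.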

Structure (SMILES)	dissociation rate constant koff
Nc1ncn([C@@H]2O[C@H](CO)[C@@H](O)[C@H]2O)c(=O)n1	0.0634 s⁻¹
CCN(CC)CCC(=O)N1N=C(c2c(-c3ccccc3)c3cc(Br)ccc3[nH]c2=O)CC1c1ccc(Br)cc1 (stereo not given)	0.0737 s⁻¹
NC(=O)c1cnc(N[C@@H]2CCCC[C@@H]2N)nc1Nc1cccc(-n2nccn2)c1	0.561 s⁻¹
COc1ccc(C(OC[C@H]2O[C@@H](n3cnc4c(=O)[nH]c(NC(=O)C(C)C)nc43)[C@H](F)[C@@H]2OP(OCCC#N)N(C(C)C)C(C)C)(c2ccccc2)c2ccc(OC)cc2)cc1 (stereo not given in full)	0.0363 s⁻¹
C[C@@H](c1ccc(-c2ccccc2)c(F)c1)c1cc(/N=C(\N)N2CCOCC2)on1	0.00464 s⁻¹
O=c1ccn([C@@H]2O[C@H](COP(=O)(O)OP(=O)(O)O)[C@@H](O)[C@H]2O)c(=O)[nH]1	0.0116 s⁻¹
Nc1ccc(CCNc2ncnc3c2ncn3[C@@H]2O[C@H](CO)[C@@H](O)[C@H]2O)cc1	0.0156 s⁻¹
C[C@H](Nc1cc(-c2cnn(C)c2)cc(Nc2cnccn2)n1)c1ccc(F)cc1	0.0857 s⁻¹ and 0.0501 s⁻¹
O=c1[nH]c(=O)n([C@H]2C[C@H](O)[C@@H](CO)O2)cc1Cl	0.0103 s⁻¹
CCN1CCN(Cc2ccc(NC(=O)c3ccc(C)c(Oc4ncnc5[nH]c(C)cc45)c3)cc2C(F)(F)F)CC1	0.103 s⁻¹
Cc1nc(Nc2cnn(C3CCNCC3)c2)nc2c1N(C)C(=O)c1cc3ccccc3cc1N2C	0.521 s⁻¹
NC(=O)c1ncn([C@@H]2O[C@H](CO)[C@@H](O)[C@H]2O)c1O	0.0126 s⁻¹
C=CC(=O)Nc1cc(Nc2ncc(C(=O)OC(C)C)c(-c3cn(C)c4ccccc34)n2)c(OC)cc1N(C)CCN(C)C	1.09 s⁻¹
Nc1ncnc2c1ncn2[C@@H]1O[C@H](CO)[C@@H](O)[C@H]1F	37.3 s⁻¹
C/C(=N\NC(=O)c1ccc(C)c(Br)c1)c1ccc(O)cc1O	4.1e-06 s⁻¹
CC(C)n1cnc2c(NCc3cccc(C(F)(F)F)c3)ncnc21	0.365 s⁻¹
c1cc(-c2cnn3cc(-c4ccc(OCCN5CCCCC5)cc4)cnc23)ccn1	0.0156 s⁻¹
COc1ccc2cc1Oc1ccc(cc1)C[C@H]1c3cc(c(OC)cc3CCN1C)Oc1c(O)c(OC)cc3c1[C@H](C2)N(C)CC3	0.0743 s⁻¹
Nc1nc2c(ncn2[C@@H]2O[C@H](COP(=O)(O)OP(=O)(O)OP(=O)(O)O)[C@@H](O)[C@H]2O)c(=O)[nH]1	0.0343 s⁻¹
C[C@@H](Oc1cc(-c2cnn(C3CCNCC3)c2)cnc1N)c1c(Cl)ccc(F)c1Cl	0.518 s⁻¹

Structure (SMILES)	dissociation rate constant koff
NC(=O)c1cccc(-c2cc(Nc3ccc(OC(F)(F)F)cc3)ncn2)c1	1.14 s⁻¹
O=C(O[C@@H]1Cc2c(O)cc(O)cc2O[C@@H]1c1cc(O)c(=O)c2c(O)c(O)cc([C@H]3Oc4cc(O)cc(O)c4C[C@H]3OC(=O)c3cc(O)c(O)c(O)c3)c2c1)c1cc(O)c(O)c(O)c1	0.00123 s⁻¹
Nc1nc2c(ncn2[C@@H]2O[C@H](CO)[C@@H](O)[C@H]2O)c(=O)[nH]1	0.0369 s⁻¹
Cc1ncc(NC(=O)c2cccc(C(F)(F)F)c2)cc1-c1cnc(OC2CCOCC2)c(N2CCOCC2)c1	0.125 s⁻¹
CC[C@@H](N)CNc1ccnc(-c2cc(-c3cnn(C)c3)ccc2O)n1	0.0361 s⁻¹
Cn1cc(-c2ccc3c(c2)CCN3C(=O)Cc2cccc(C(F)(F)F)c2)c2c(N)ncnc21	0.158 s⁻¹
O=c1[nH]cnc2c1ncn2[C@H]1C[C@H](O)[C@@H](CO)O1	0.0426 s⁻¹
O=c1[nH]cc([C@@H]2O[C@H](CO)[C@@H](O)[C@H]2O)c(=O)[nH]1	0.0134 s⁻¹
CCN1CCC(n2cc(CNc3cc(Cl)c4ncc(C#N)c(Nc5ccc(F)c(Cl)c5)c4c3)nn2)CC1	0.0101 s⁻¹
CN1CCCN(C(=O)c2cccc(-c3ccc(/C=C4/C(=O)Nc5ccc(Cl)cc54)o3)c2)CC1	0.0205 s⁻¹ and 0.049 s⁻¹
C=CC(=O)Nc1ccc(C(=O)Nc2n[nH]c3c2CN(C(=O)N[C@H](CN(C)C)c2ccccc2)C3(C)C)cc1	0.116 s⁻¹
C[C@@H]1O[C@@H](O[C@@H]2[C@@H](O)[C@H](OCCc3ccc(O)c(O)c3)O[C@H](CO)[C@H]2OC(=O)/C=C/c2ccc(O)c(O)c2)[C@H](O)[C@H](O)[C@H]1O	0.928 s⁻¹
COc1ccc(C(OC[C@H]2O[C@@H](n3ccc(NC(=O)c4ccccc4)nc3=O)C[C@@H]2OP(OCCC#N)N(C(C)C)C(C)C)(c2ccccc2)c2ccc(OC)cc2)cc1 (stereo not given in full)	0.173 s⁻¹
Cc1ccc(C(=O)Nc2cccc(C(F)(F)F)c2)cc1-c1ccc2nc(NCCN3CCOCC3)ncc2c1	0.0204 s⁻¹
Cc1cnc(Nc2ccc(F)cc2Cl)nc1-c1c[nH]c(C(=O)N[C@H](CO)c2cccc(Cl)c2)c1	0.0442 s⁻¹
CN1CCC(CNc2ccc3ncc(-c4cccc(OC(F)(F)F)c4)n3n2)CC1	0.0535 s⁻¹
Cc1cn([C@@H]2O[C@H](CO)[C@@H](O)[C@H]2O)c(=O)nc1N	0.157 ± 0.2 s⁻¹
Cc1cc2cc(Oc3ccnc(Nc4cccc(CS(=O)(=O)NCCN(C)C)c4)n3)ccc2[nH]1	0.156 s⁻¹
C[N+](C)(C)CCOP(=O)(O)OP(=O)([O-])OC[C@H]1O[C@@H](n2ccc(N)nc2=O)[C@H](O)[C@@H]1O	0.0201 s⁻¹
Cc1ccc(Oc2nc3cc(-c4ccc(-c5ccccc5)cc4)c(Cl)cc3[nH]2)cc1C(=O)O	0.0531 s⁻¹
